Laboratory results published in PubChem BioAssay AID504444 (National Center for Advancing Translational Sciences (NCATS), 2011).
The whole screen tested about 360,000 compounds, of which about 7,500 (2.1%) were called active. Roughly 20% stayed inconclusive and do not appear here. Calls follow the shape of the dose curve; as a rule, active = well fitted inhibition curve with a large enough effect; inconclusive = small, poorly fitted or top-dose-only effect, or effect the other way; inactive = flat fitted curve, though single readings scatter. The list shows a part of the results, in another mix than the full data. Where a structure was tested more than once in an assay, its records may differ in their call. Square brackets hold non-standard residues; d marks the D form. Peptide text beside a SMILES is read from it. * marks the point of attachment. ξ: configuration not given here. Boc = CC(C)(C)OC(=O)*; ξP = O=C(O)C1CCCN1; Sar = CNCC(=O)O

test: Nrf2 qHTS screen for inhibitors; conditions: A549 ARE-Fluc reporter, luciferase luminescence, 18-24 h; series mostly up to 46 µM; activity change, negative = inhibition: at the top concentration; also: nearly all actives have a fitted effect of over 60% in size
In short: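 Quantitative HTS in A549 cells stably bearing an antioxidant response element-firefly luciferase construct. Inhibition of Nrf2-driven transcription was scored by luminescence after 18-24 h of compound exposure at 37 °C.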
% is scaled to controls: 0 for no effect and ±100 for the full control effect; potency is read from the fitted curve at half-maximal effect.

| SMILES | activity change, negative = inhibition | Potency |
| --- | --- | --- |
| Cc1cc(C)cc(NC(=O)NCC2CCN(Cc3cc(C)ccc3C)CC2)c1 | inactive: 8.93% | – |
| COc1ccc(-n2c(=O)c3c(C)c(C)sc3n(Cc3ccc(F)cc3)c2=O)c(OC)c1 | inactive: -7.91% | – |
| CCN1C(=O)[C@@H]2[C@@H](c3ccc(-c4ccc(Cl)c(Cl)c4)c(OC)c3)N3CCCC[C@@]3(C(=O)OC)[C@@H]2C1=O | inactive: -28.6% | – |
| Cc1c(C)n(C)c2ccc(C(=O)NCCCN3CCCCC3)cc12 | inactive: 0.29% | – |
| O=C1Nc2ccc(Br)cc2/C1=N\N=C\C1=C(N2CCOCC2)C(=C/c2ccccc2)/CC1 | inactive: -0.468% | – |
| CC1(C2CC2)NC(=O)N(CC(=O)N2CCN(c3cccc(C(F)(F)F)c3)CC2)C1=O (configuration not stated) | – | active: 11.6 µM |
| NC(=O)OCC(COC(N)=O)c1ccccc1 | inactive: 1.92% | – |
| CC(=O)O[C@]1(C(C)=O)CCC2C3C=C(C)C4=CC(=O)CC[C@]4(C)C3CC[C@@]21C (some centres not stated) | – | active: 0.259 µM |
| Cc1ccccc1C(=O)Nc1nnc(S(=O)(=O)N2CCCCCC2)s1 | inactive: 19.1% | – |
| COc1ccc(Cl)cc1NC(=O)c1sc2nc(C)nc(N3CCOCC3)c2c1C | – | active: 20.6 µM |
| C[C@@H]1CC[C@@]2(O[C@@H](CCO)C[C@@H](O)[C@@H]2O)O1 | inactive: 15% | – |
| CN1C(=O)Cc2cc(S(=O)(=O)NCCc3ccccc3)ccc21 | inactive: 29.7% | – |
| CC(=O)c1ccc(N2CCN(S(=O)(=O)c3ccc(-c4cc(C)no4)s3)CC2)cc1 | inactive: 4.57% | – |
| CCOC(=O)C1CCN(S(=O)(=O)c2ccc3c(c2)NC(=O)C(C)C(=O)N3)CC1 (configuration not stated) | inactive: -7.22% | – |
| CCCCNC(=O)CCc1c(C)nc2c(c(C)nn2-c2ccccc2)c1C | inactive: -24.2% | – |
| O=C1S/C(=C/c2ccccc2)C(=O)N1CC(O)Cn1c2ccccc2c2ccccc21 (configuration not stated) | inactive: 12.4% | – |
| Cc1sc2ncnc(N3CCN(c4ncccn4)CC3)c2c1C | – | active: 14.6 µM |
| Cc1cccc(C)c1Nc1c(-c2ccc(N3CCOCC3)cc2)nc2ncccn12 | inactive: -10.5% | – |
| CC(=O)c1ccc(NS(=O)(=O)c2ccc(C(C)(C)C)cc2)cc1 | – | active: 8.2 µM |
| O=C(C1=C[C@@H](c2csc3ccccc23)C[C@@H](OCCCCO)O1)N1CCN(Cc2ccc3c(c2)OCO3)CC1 | inactive: -15.1% | – |
| Cc1cc(C)nc(NS(=O)(=O)c2ccc(N/C=C/C(=O)c3ccc(Cl)cc3)cc2)n1 | inactive: -3.67% | – |
| CC1=C/C(=C(\c2ccc(O)c(C)c2)c2ccccc2S(=O)(=O)O)C=CC1=O | inactive: 5.92% | – |

| SMILES | activity change, negative = inhibition | Potency |
| --- | --- | --- |
| COc1ccc(N2C(=O)c3ccccc3C2=O)cc1 | inactive: 1.39% | – |
| O=C(O)CSCC(=O)Nc1ccc(C2CCCCC2)cc1 | – | active: 5.17 µM |
| CCNC(=S)N(CCc1cccc(C)c1)Cc1cc2cc(OC)c(OC)cc2[nH]c1=O | – | active: 23.1 µM |
| CCCC1=NN(c2ccc([N+](=O)[O-])cc2)C(=O)/C1=C/N(C)C | inactive: 16.1% | – |
| Cc1ccc(N(C)C(=O)CC(C)S(=O)(=O)c2ccc3c(c2)NC(=O)CO3)cc1 (configuration not stated) | inactive: 13.9% | – |
| COc1ccc(C2C3=C(COC3=O)Oc3cc4c(cc32)OCO4)cc1OC (configuration not stated) | inactive: 18.3% | – |
| COC(=O)C1=C(C(=O)OC)[C@]2([C@@H]3CC=CCN[C@@H](Cc4ccccc4)C(=O)N3Cc3ccccc3)C=C[C@H]1O2 | inactive: -15.2% | – |
| CN(c1ccccc1)S(=O)(=O)c1cccc(NC(=O)C2=NN(c3ccccc3)C(=O)CC2)c1 | – | active: 20.6 µM |
| CCCCN(C)CCNC(=O)C1CCCN(S(=O)(=O)c2cccc3nsnc23)C1 (configuration not stated) | inactive: 15.7% | – |
| CNC(CC(C)C)C(=O)NC1C(=O)NC(CC(N)=O)C(=O)NC2C(=O)NC3C(=O)NC(C(=O)NC(C(=O)O)c4cc(O)cc(O)c4-c4cc3ccc4O)C(O)c3ccc(c(Cl)c3)Oc3cc2cc(c3OC2OC(CO)C(O)C(O)C2OC2C[C@](C)(N)C(O)C(C)O2)Oc2ccc(cc2Cl)C1O (some centres not stated) | inactive: 9.27% | – |
| O=C1N[C@H](Cc2c[nH]c3ccccc23)COC(=O)[C@H](Cc2ccc(F)cc2)C/C=C\C[C@H]1CC(=O)N(CCO)Cc1ccccc1 | inactive: -16.1% | – |
| COc1cc(/C=N\Nc2nc3ccccc3[nH]2)cc(OC)c1OC | – | active: 5.8 µM |
| CCOC(=O)[C@@H]1[C@H]2COc3cc(OC)ccc3[C@@H]2N2C(=O)N(c3cccc(F)c3)C(=O)[C@]12C | inactive: -10% | – |
| COc1ccc(OC)c(C2=NS(=O)(=O)N(C)C(C(=O)Nc3ccc(C(C)=O)cc3)=C2)c1 | inactive: 3.54% | – |
| CC(NC(=O)COc1ccccc1)C(=O)OCC(=O)c1cc2ccccc2o1 (configuration not stated) | inactive: -11.7% | – |
| O=C(NCc1ccccc1)C1=C[C@H](c2ccc(Br)cc2)C[C@H](OCc2ccc(CO)cc2)O1 | inactive: 1.11% | – |
| COc1cccc(C2C=C(c3ccccc3)Nc3c(C(=O)Nc4ccccc4)cnn32)c1OC (configuration not stated) | – | active: 2.31 µM |
| COC(=O)[C@@]12CCCCN1[C@H](c1ccc(-c3ccc(C(C)=O)cc3)cc1)[C@H]1C(=O)N(C)C(=O)[C@H]12 | inactive: -10.8% | – |
| COc1ccc(NCc2nc3ccccc3n2CCOc2ccc(C)cc2)cc1 | inactive: 6.81% [at 9.27 µM] | – |
| COc1ccc(C)cc1NC(=O)CN1C(=O)COc2ccc(S(=O)(=O)N3CCCCCC3)cc21 | inactive: -7.7% | – |
| CCCOc1ccccc1C1CC(=O)Nc2cc3c(cc21)OCCO3 (configuration not stated) | – | active: 20.6 µM |
| CCOC(=O)CN(C)C(=O)C1CCCN1C(=O)OC(C)(C)C (configuration not stated) (Boc-[ξP]-[Sar]-OEt) | inactive: 14.2% | – |

| SMILES | activity change, negative = inhibition | Potency |
| --- | --- | --- |
| COc1ccccc1CNC(=O)c1nn(-c2ccc(C)cc2)c(=O)c2c1c1ccccc1n2C | inactive: 7.01% | – |
| O=C(Nc1nnc(S(=O)(=O)N2CCCC2)s1)c1ccccc1Cl | inactive: 12.9% | – |
| CCOc1cc(C2CC(=O)N3CN(C4CCCCC4)CSC3=C2C#N)ccc1O (configuration not stated) | inactive: 7.06% | – |
| Cc1cc(C)cc(NC(=O)CCCn2nc(C)c3c(C)n(-c4ccccc4)nc3c2=O)c1 | inactive: -1.9% | – |
| CCCCNc1nc2c(c(=O)n(Cc3ccccc3)c(=O)n2C)n1C | inactive: -18% | – |
| O=C1O[C@@H]([C@H](O)CO)C(O)=C1O | inactive: 1.41% | – |
| CC(C)(C)[C@H]1C=C(C(=O)NCc2ccccc2)O[C@@H](OCc2ccc(CO)cc2)C1 | inactive: -2.57% | – |
| O=C(O)CSc1cccc2cccnc12 | inactive: 3.62% | – |
| Cc1ccccc1OCCn1c(CCNC(=O)C2CCCCC2)nc2ccccc21 | inactive: 3.98% | – |
| Nc1nn(-c2ccccc2)nc1C(=O)OCc1ccccc1 | inactive: 16.8% | – |
| COc1ccc2c(c1)[C@@H]1[C@H](CO2)[C@H](c2ccccc2)[C@]2(C)C(=O)Nc3ccc(C)cc3C(=O)N12 | inactive: 1.75% | – |
| CCC1CC=CC2C1C(=O)N(Cc1ccccc1)C2c1ccc(C(F)(F)F)cc1 (configuration not stated) | inactive: -12.2% | – |
| Cc1ccc(OCC(=O)Nc2nnc(S(=O)(=O)N3CCCCCC3)s2)cc1 | inactive: -6.83% | – |
| CCOc1ccccc1CNC(=O)CCCn1ccc2cc(S(=O)(=O)N3CCCC3)ccc21 | inactive: 1.06% | – |
| COc1cccc(C(=O)Nc2nnc(S(=O)(=O)N3CCCC3)s2)c1 | inactive: 16.2% | – |
| Cc1ccc(NS(=O)(=O)c2ccc3c(c2)NC(=O)CO3)cc1C | inactive: -17.4% | – |
| CC1CCCCN1CCCNC(=O)CN1C(=O)c2cccnc2Oc2ccccc21 (configuration not stated) | inactive: 26% | – |
| O=C(O)C1=C[C@H](c2coc3ccccc3c2=O)C[C@H](OCCCCO)O1 | inactive: 4.7% | – |
| CCCCN(CC)CCNC(=O)c1cc2c(=O)n(CC)c3ccccc3c2s1 | inactive: 6.34% | – |
| Cc1nc(SCCOc2ccccc2F)[nH]c(=O)c1Cc1ccccc1 | inactive: -5.12% | – |
| COCCn1c(=NC(=O)c2ccc3c(c2)OCCO3)sc2cc(S(N)(=O)=O)ccc21 | – | active: 13 µM |
| CCOC(=O)c1nc(Nc2ccccc2CC)c2ccccc2n1 | – | active: 23.1 µM |

| SMILES | activity change, negative = inhibition | Potency |
| --- | --- | --- |
| O=C(CCCN1C(=O)/C(=C/c2cccs2)SC1=S)Nc1ccccn1 | inactive: 21.2% | – |
| O=C(CSc1nc(-c2ccc(F)cc2)[nH]c1-c1ccc(F)cc1)Nc1ccc2c(c1)OCO2 | – | active: 16.4 µM |
| CCOC(=O)c1c(CN2CCOCC2)n(C)c2cc(Br)c(O)c(CN(C)C)c12 | inactive: 11.7% | – |
| O=C(c1ccco1)N(Cc1ccc(Cl)cc1)C1CCS(=O)(=O)C1 (configuration not stated) | – | active: 25.9 µM |
| CCOC(=O)C1=C(Nc2ccccc2)CC(C)(O)C(C(=O)OCC)C1c1ccc(Cl)cc1 (configuration not stated) | inactive: -21.4% | – |
| C[C@@H](C(=O)NCc1ccccc1)[C@@H]1C[C@@]1(C)[C@@H](NC(=O)OCc1ccccc1)c1ccccc1 | inactive: -7.73% | – |
| CCC(C)Nc1nc(C)nc2c1oc1ccccc12 (configuration not stated) | – | active: 20.6 µM |
| CCc1nnc(NC(=O)c2cccc(C(=O)Nc3nnc(CC)s3)n2)s1 | – | active: 0.259 µM |
| COc1cc(NC(=O)c2nn(C)c3c2CS(=O)(=O)c2ccccc2-3)cc(OC)c1 | inactive: -9.63% | – |
| CCOC(=O)[C@H]1[C@H]2COc3ccc(Br)cc3[C@H]2N2C(=O)CN(Cc3ccc(Cl)cc3)C(=O)[C@@]12C | – | active: 25.9 µM |
| COC(=O)C1=C(C(=O)OC)[C@@H]2N(Cc3ccccc3)c3ccccc3[C@@]23C[C@@H](C(=O)OC)N(C(=O)c2cc(C)oc2C)C3=N1 | – | active: 23.1 µM |
| O=C(O)c1ccc(NCc2nc3ccccc3n2CCOc2ccccc2Cl)cc1 | inactive: -6.88% [at 9.27 µM] | – |
| COCCn1c(=O)[nH]c2cc(C(=O)N3CCN(c4ccc(Cl)cc4)CC3)ccc2c1=O | inactive: -25.1% [at 9.27 µM] | – |
| COc1ccc(C(F)(F)F)cc1N/C=C\c1nnnn1-c1ccc(C)cc1 | inactive: 9.89% | – |
| C[C@]12C(=O)N(c3cccc(F)c3)C(=O)N1[C@@H]1c3ccccc3OC[C@@H]1[C@H]2c1ccccc1 | inactive: 2.53% | – |
| CC(=O)C[C@@H](O)CC(=O)[C@@H]1OC(=O)[C@@H](C)C/C=C\Cc2ccccc21 | inactive: 17.5% | – |
| COc1ccc(NC(=O)C2CCCN(S(=O)(=O)c3c(C)n[nH]c3C)C2)cc1OC (configuration not stated) | inactive: -9.14% | – |
| C[C@H]1CCC[C@@]2(O[C@H](CCO)C[C@H](O)[C@H]2O)O1 | inactive: 3.06% | – |
| CCOCCCNC(=O)c1cc2c(=O)n3ccccc3nc2s1 | inactive: 24% | – |
| CC(=O)N1CCN(c2ccc(NCc3cccc(C)c3)cc2)CC1 | – | active: 14.6 µM |
| O=C1NCCOC(=O)[C@H](Cc2ccc(F)cc2)C/C=C\C[C@H]1CC(=O)N(CCO)Cc1ccccc1 | inactive: -15.4% | – |
